Here are results for 63 molecules from PubChem BioAssay AID1508642 (National Center for Advancing Translational Sciences (NCATS), 2021).

About 200 (0.47%) of roughly 43,000 compounds were called active. Another 12% or so got no clear call; they are omitted. The call rests on the fitted dose curve; in most records, active means well fitted cell-killing curve with a large enough effect; inconclusive means small, poorly fitted or top-dose-only effect, or effect the other way; inactive means flat fitted curve, though single readings scatter. The list shows a part of the results.
On the % scale 0 is the no-effect control and ±100 the full control effect.

This assay can be described thus: Cell viability qHTS assay in S16 Pmp22-F2sN cells. Further: nearly all actives have a fitted effect of over 65% in size. Particulars: S16 Pmp22-F2sN Schwann cells (luciferase reporters placed in the Pmp22 gene) viability, CellTiter-Glo, 24 h; series mostly up to 57.5 µM; activity change, negative = cytotoxicity: at the top concentration. In a few lines:
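Seed 500-1,000 S16 Pmp22-F2sN cells per well in phenol-red-free DMEM with 10% heat-inactivated FBS; pin-add 23 nL compound; incubate 24 h at 37C; add CellTiter-Glo, wait 15 min protected from light; read luminescence.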
For orientation: qHTS replaces the single test concentration by a dilution series.
As for `Cc1ccc2c(CC(=O)N3CCN(c4cccc(Cl)c4)CC3)coc2c1`, the “activity change, negative = cytotoxicity” value was inactive: -24.1%.
Turning to `CCCCNc1ccc(-c2nc(-c3ccccc3)no2)cc1[N+](=O)[O-]`, the “activity change, negative = cytotoxicity” value was inactive: 0.476%.
To `CSc1ncc(Cl)c(C(=O)NCc2ccc(C)cc2)n1` belongs inactive: 3.84%; to `COc1cc(Nc2nc(SCc3ccccc3F)nc3ccccc23)cc(OC)c1`, inactive: -26.9%.
On to `CCOc1ccccc1NC(=O)CSc1c(C)cnc2c1c(=O)n(C)c(=O)n2C`, for which the “activity change, negative = cytotoxicity” value was inactive: -1.05%.
As for `Cc1ccc(CCNC(=O)c2ccc(CS(=O)(=O)c3ccc(Br)cc3)o2)cc1`, the “activity change, negative = cytotoxicity” value is inactive: 13.5%.
The result for `Cc1cccc(NC(c2cccc(F)c2)c2ccc3ccc(C)nc3c2O)n1` (stereo not drawn) reads inactive: -13.1%; that for `c1ccc(-c2cc(-c3ccccc3)c3c(n2)-c2ccccc2OC3)cc1`, inactive: 23.6%.
As for `Cc1nc2ccc(S(=O)(=O)NC(C(=O)NCc3ccccc3Cl)C(C)C)cc2s1` (stereo not drawn), the “activity change, negative = cytotoxicity” value was inactive: -0.371%.
As to `CC1CCN(S(=O)(=O)c2ccc3c(c2)N(CC(=O)NCc2ccccc2Cl)C(=O)CS3)CC1`, the “activity change, negative = cytotoxicity” value is inactive: -5.91%.
To `NC(=O)CSc1nc2ccc(NC(=O)COc3ccccc3)cc2s1` belongs inactive: 7.24%; to `CC1CCC(NC(=O)c2ccc3c(c2)N(Cc2ccccc2F)C(=O)c2ccccc2S3)CC1` (stereo not drawn), inactive: 11.7%.
In the case of `CCCn1c(=N)c(C(=O)NC2CCCC2)cc2c(=O)n3cc(C)ccc3nc21`, the “activity change, negative = cytotoxicity” value is inactive: 10.7%.
The result for `O=C(CC(c1cccs1)N1Cc2ccccc2C1=O)Nc1ccccc1F` (stereo not drawn) reads inactive: -0.756%; that for `Cc1ccc(-c2nn(CCC(=O)Nc3ccc(Cl)c(Cl)c3)c(=O)c3ccccc23)cc1`, inactive: 7.56%.
To `COc1ccc(-c2nc(S(=O)(=O)c3ccc(Cl)cc3)c(N3CCCCCC3)o2)cc1` belongs inactive: -3.76%; to `Cc1ccc(C(=O)NCCSc2c(C)[nH]c3ccccc23)cc1C`, inactive: -2.29%.
To `CCOc1cc(C2C(C(N)=O)=C(C)Nc3ncnn32)cc(Br)c1O` (stereo not drawn) belongs inactive: 5.61%; to `Cc1ccc(NC(=O)CN2C(=O)CSc3ccc(S(=O)(=O)N(C)C)cc32)cc1C`, inactive: -29.8%.
In the case of `COC(=O)c1cc2occc2n1Cc1ccc(F)cc1Cl`, the “activity change, negative = cytotoxicity” value was inactive: 0.139%.
For the molecule `Cc1ccc(CSC2=Nc3ccccc3C3=NC(CCC(=O)NCCc4ccccc4)C(=O)N23)cc1` (stereo not drawn), the “activity change, negative = cytotoxicity” value is inactive: -3.9%.
To `Nc1nc2nc(-c3ccc(Cl)cc3)cc(C(F)(F)F)n2n1` belongs inactive: 9.22%; to `CC(=O)N1c2ccccc2C(=O)C1N1CCN(c2cccc(C)c2C)CC1` (stereo not drawn), inactive: -0.236%.
The result for `Cc1ccc(NC(=O)CSc2nc3c(c(=O)[nH]2)CN(Cc2ccccc2)CC3)cc1Cl` reads inactive: 1.43%; that for `Nc1nonc1-c1nc2ccccc2n1Cc1ccc(Br)cc1`, inactive: 6.24%.
Consider `CC1(C)CC(=O)c2cc(C(=O)Nc3ccc(Cl)cc3)c(=O)[nH]c2C1`, for which the “activity change, negative = cytotoxicity” value was inactive: 8.44%.
As to `Cc1ccc(NC(=O)C2=CC(c3cccs3)=NS(=O)(=O)N2C)cc1`, the “activity change, negative = cytotoxicity” value is inactive: -4.4%.
To `CC(C)(Oc1ccc(Cl)cc1)C(=O)Nc1cccc(-c2cn3cccnc3n2)c1` belongs inactive: -0.303%; to `CCOC(=O)c1[nH]c(C)c(CCC(=O)NCc2cccc(Cl)c2)c1C`, inactive: -15.7%; to `COc1cc(-c2cc3n(C)c(C)c(CCC(=O)Nc4ccc(F)cc4)c(=O)n3n2)cc(OC)c1OC`, inactive: 22.8%.
Regarding `COC(=O)c1ccc([C@@H]2Nc3c(cccc3C(F)(F)F)[C@@H]3C=CC[C@@H]32)cc1`, the “activity change, negative = cytotoxicity” value is inactive: 1.98%.
For the molecule `Cc1ccccc1CN1C(=O)c2ccccc2Sc2ccc(C(=O)N3CCOCC3)cc21`, the “activity change, negative = cytotoxicity” value was inactive: -10.7%.
The result for `COc1ccccc1-c1c(C(F)(F)F)oc2c(CN3CCCCC3C)c(O)ccc2c1=O` (stereo not drawn) reads inactive: 17.6%; that for `CCN1C(=O)c2ccccc2S(=O)c2ccc(C(=O)N3CCN(c4ccc(F)cc4)CC3)cc21` (stereo not drawn), inactive: 23.6%.
The result for `Cc1cccc(-c2nc(-c3ccc4c(c3)[nH]c(=O)n4C)no2)c1` reads inactive: -1.38%; that for `CC(=O)c1[nH]c(C)c(C(=O)NCc2ccc(Cl)cc2)c1C`, inactive: -27.8%; that for `O=C(Nc1ccc2oc(-c3cccc4c(Br)cccc34)nc2c1)c1ccc(Br)cc1`, inactive: -3.72%.
To `Cc1cc(F)ccc1NC(=O)CCS(=O)(=O)c1cccc2nsnc12` belongs inactive: -0.23%; to `Cc1ccc(S(=O)(=O)N2CCC(C(=O)Nc3cc(C)ccc3C)CC2)cc1`, inactive: -0.103%; to `Cc1cccc(NC(=O)CSc2nc3c(oc4ccccc43)c(=O)n2-c2ccccc2)c1C`, inactive: -14.9%.
For the molecule `CCN(C(=O)c1cc2c(=O)oc3ccccc3c2s1)c1cccc(C(F)(F)F)c1`, the “activity change, negative = cytotoxicity” value is inactive: 7.16%.
For the molecule `CCOc1ccc(OCC)c(Nc2nc3ccccc3n3nnnc23)c1`, the “activity change, negative = cytotoxicity” value was inactive: -0.103%.
The result for `COc1ccc(-c2nc3ccccc3o2)cc1NC(=O)c1ccc(-c2ccc(C)c(Cl)c2)o1` reads inactive: 7.34%; that for `COCCNC(=O)c1ccc2c(c1)NC(=O)C(CS(=O)(=O)Cc1ccc(F)cc1Cl)N2` (stereo not drawn), inactive: 2.48%; that for `COc1ccc(NC(=O)c2c(NC(=O)c3cccc(C)c3)sc3c2CCC3)cc1`, inactive: 5.1%.
For the molecule `COc1cccc(CNC(=O)c2ccc3oc(=O)n(Cc4ccccc4)c3c2)c1`, the “activity change, negative = cytotoxicity” value was inactive: -16.9%.
The result for `COc1ccccc1Nc1ncc2c(n1)CCN(CC(C)C)C2` reads inactive: 12.7%.
The result for `O=C(CN1C=NS(=O)(=O)c2ccccc21)Nc1ccc(Br)cc1` reads inactive: -1.51%.
As for `Cc1ccccc1CNC(=O)CCCn1ncn2c(cc3occc32)c1=O`, the “activity change, negative = cytotoxicity” value was inactive: -15.4%.
On to `COc1ccc(NC(=O)CSC2=Nc3ccccc3C3=NC(Cc4ccccc4)C(=O)N23)cc1` (stereo not drawn), for which the “activity change, negative = cytotoxicity” value was inactive: -0.425%.
To `O=C(CSc1nc2c(c(=O)[nH]1)CCC2)Nc1cccc(O)c1` belongs inactive: -1.45%.
On to `COc1ccc(OC)c(NC(=O)Nc2cccc(OCc3cc(=O)n4cc(C)ccc4n3)c2)c1`, for which the “activity change, negative = cytotoxicity” value is inactive: 15.3%.
As for `Cc1ccc(NC(=O)CSc2nnc(C)s2)c(C)c1`, the “activity change, negative = cytotoxicity” value was inactive: 23.4%.
To `COc1ccc(NC(=O)C2CCN(c3nc4ccccc4[nH]3)CC2)cc1OC` belongs inactive: 17.4%.
The result for `CCCCN1C(=O)C(NC(=O)c2ccc(C(C)(C)C)cc2)(C(F)(F)F)C(C(=O)OC)=C1C` (stereo not drawn) reads inactive: -3.05%; that for `Cc1cc(O)c(C(c2ccc(F)cc2)N2CCN(c3ccccc3)CC2)c(=O)n1Cc1ccco1` (stereo not drawn), inactive: -8.11%; that for `CCn1c(=O)c2sccc2n2c(CCCC(=O)Nc3ccc(C)cc3)nnc12`, inactive: -0.685%.
For `COc1cc(NC(=O)c2c(C)nn(-c3ccc(F)cc3)c2-n2cccc2)cc(OC)c1`, the “activity change, negative = cytotoxicity” value was inactive: 17.8%.
Take `Cc1ccc(N2CCN(c3ncnc4onc(-c5ccc(F)cc5)c34)CC2)c(C)c1`: the “activity change, negative = cytotoxicity” value was inactive: -4.61%.
`COC(=O)c1ccccc1NC(=O)CSc1cc(-c2ccccc2)nc(C)n1`: the “activity change, negative = cytotoxicity” value is inactive: -4.1%.
To `COc1ccc(NC(=O)N2CCC(CN3CCCC3)CC2)c(OC)c1` belongs inactive: -14.2%; to `O=C(CCn1c(=O)c2cccn2c2ccc(F)cc21)NCCc1ccc(Cl)cc1`, inactive: -1.69%.
`O=C(C1CCCN(S(=O)(=O)c2cccc3nonc23)C1)N1CCN(c2ccccc2F)CC1` (stereo not drawn): the “activity change, negative = cytotoxicity” value was inactive: 2.13%.
